Laboratory results published in PubChem BioAssay AID504332 (National Center for Advancing Translational Sciences (NCATS), 2011).
Screen size: about 350,000 compounds; about 31,000 (8.9%) were called active. This list was built around the results that the source calls inconclusive (neither active nor inactive); the mix of calls is not that of the screen. Calls follow the shape of the dose curve; as a rule, active = well fitted inhibition curve with a large enough effect; inconclusive = small, poorly fitted or top-dose-only effect; inactive = no such curve, though single readings can be large or run the other way. Potencies beside an inconclusive call are fits to weak or partial responses and may not hold up. Some compounds were tested as several samples or in several runs, with calls that do not always agree.

Biological target: Histone-lysine N-methyltransferase EHMT2 (Homo sapiens) (UniProt Q96KQ7)
Assay: qHTS Assay for Inhibitors of Histone Lysine Methyltransferase G9a; also: nearly all actives have a fitted effect of over 75% in size
Conditions: G9a H3K9 monomethylation, AlphaScreen, 2 h; activity, negative = inhibition: at 59 µM (top of the series) unless noted
Outline: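 Quantitative HTS format: methyltransferase activity on a biotin-tagged H3K9 peptide is measured by AlphaScreen, using a rabbit anti-monomethyl-H3K9 antibody with streptavidin donor and anti-IgG acceptor beads. Final levels are 20 nM enzyme, 500 nM peptide, 20 uM SAM; 2 h RT.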
% is scaled to controls: 0 for no effect and ±100 for the full control effect; potency is read from the fitted curve at half-maximal effect; tags tell the direction and shape of the fitted curve.

Sequence of UniProt Q96KQ7 (Q96KQ7 whole entry, looked up): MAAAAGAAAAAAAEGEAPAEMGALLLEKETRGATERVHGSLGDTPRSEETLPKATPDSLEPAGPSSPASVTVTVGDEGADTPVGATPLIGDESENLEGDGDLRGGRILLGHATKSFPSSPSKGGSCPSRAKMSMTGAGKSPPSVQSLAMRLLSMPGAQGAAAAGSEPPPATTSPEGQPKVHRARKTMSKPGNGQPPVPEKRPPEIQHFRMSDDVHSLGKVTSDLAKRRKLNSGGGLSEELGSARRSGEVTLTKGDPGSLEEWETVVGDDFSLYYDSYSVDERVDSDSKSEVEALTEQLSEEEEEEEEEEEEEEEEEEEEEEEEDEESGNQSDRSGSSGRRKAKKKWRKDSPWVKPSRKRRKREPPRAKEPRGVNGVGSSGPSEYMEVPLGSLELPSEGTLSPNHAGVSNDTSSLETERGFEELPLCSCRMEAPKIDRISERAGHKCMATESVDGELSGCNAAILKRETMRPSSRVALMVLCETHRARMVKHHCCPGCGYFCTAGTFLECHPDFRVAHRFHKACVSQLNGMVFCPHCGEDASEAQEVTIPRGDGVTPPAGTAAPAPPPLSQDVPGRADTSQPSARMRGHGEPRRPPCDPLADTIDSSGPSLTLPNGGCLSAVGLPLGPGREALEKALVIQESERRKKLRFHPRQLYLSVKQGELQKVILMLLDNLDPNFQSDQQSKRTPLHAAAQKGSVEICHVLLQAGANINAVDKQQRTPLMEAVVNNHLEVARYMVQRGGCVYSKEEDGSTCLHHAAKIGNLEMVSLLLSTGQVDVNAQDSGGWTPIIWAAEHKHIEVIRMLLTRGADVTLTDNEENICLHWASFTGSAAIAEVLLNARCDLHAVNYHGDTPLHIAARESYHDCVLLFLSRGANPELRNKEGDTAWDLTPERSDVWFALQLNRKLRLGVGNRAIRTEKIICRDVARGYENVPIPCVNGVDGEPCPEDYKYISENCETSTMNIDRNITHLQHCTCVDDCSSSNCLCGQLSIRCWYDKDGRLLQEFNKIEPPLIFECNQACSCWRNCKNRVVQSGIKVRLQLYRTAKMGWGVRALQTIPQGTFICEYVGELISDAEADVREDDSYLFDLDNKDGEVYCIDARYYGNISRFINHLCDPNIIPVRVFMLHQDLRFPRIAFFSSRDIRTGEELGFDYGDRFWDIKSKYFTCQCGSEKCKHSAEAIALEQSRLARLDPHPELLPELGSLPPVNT

Row | Compound | Potency | activity, negative = inhibition
1 | O=C(NCc1ccco1)C1CC(=O)N(c2ccc(F)cc2)C1 (stereo not drawn) | inconclusive: 12.6 µM [inhibitor, partial curve, poor fit] | 
2 | Cc1nn(CC(=O)N2CCN(c3ccccc3)CC2)c(C)c1[N+](=O)[O-] | inconclusive: 89.1 µM [inhibitor, single point] | 
3 | Cc1ccc(NS(=O)(=O)c2cccc3nsnc23)cc1[N+](=O)[O-] | active: 39.8 µM | 
4 | COc1ccc(C2Nc3cccc4cccc(c34)N2)cc1Br | active: 35.5 µM | 
5 | O=C(Nc1ccc(N2CCN(C(=O)c3ccc(Cl)cc3)CC2)cc1)c1ccc2c(c1)OCCO2 | active: 79.4 µM | 
6 | O=C(COc1coc(CN2CCN(c3ccccc3F)CC2)cc1=O)N1CCc2ccccc21 | inconclusive: 89.1 µM [inhibitor, partial curve, poor fit] | 
7 | Cc1csc2nc(O)c(C(=O)NCC3CCCO3)c(=O)n12 (stereo not drawn) | inconclusive: 89.1 µM [inhibitor, single point] | 
8 | COc1cc(/C=N/NC(=S)Nc2cccnc2)cc(OC)c1OC |  | inactive: 77.4% [at 12.7 µM]
9 | Cc1ccc(CNC(=O)CN(c2cccc(C)c2C)S(=O)(=O)c2ccccc2)cc1 |  | inactive: -27.6%
10 | O=S(=O)(c1cccc2cnccc12)N1CCNCC1 | inconclusive: 28.2 µM [inhibitor, single point] | 
11 | CCN(CC)CCCn1c2c(c(SCC(=O)Nc3cccc(C)c3C)nc1=O)CCC2 | inconclusive: 44.7 µM [inhibitor, partial curve, poor fit] | 
12 | CCC(CC)C(=O)Nc1ccc2nc(SCC(=O)N3CCc4ccccc43)sc2c1 |  | inactive: 7.14%
13 | NC(Cc1cccc(-c2ccccc2CP(=O)(O)O)c1)C(=O)O (stereo not drawn) | active: 9.47 µM | 
14 | COc1ccc(Nc2nc(NCc3ccco3)nc(N/N=C/c3ccccc3)n2)cc1 | inconclusive: 25.1 µM [inhibitor, partial curve, poor fit] | 
15 | CN(Cc1ccc(Br)cc1)C(=O)CCN1C(=O)c2cccc([N+](=O)[O-])c2C1=O |  | inactive: -7.14%
16 | Nc1ccc(S(=O)(=O)NC2=NCCCCC2)cc1N | inconclusive: 35.5 µM [inhibitor, full curve, poor fit] | 
17 | COc1ccc(CCNC(=O)Nc2cccs2)c(OC)c1 |  | inactive: 19.7% [at 0.501 µM]
18 | CSc1ccccc1NC(=O)c1ccc(N2CC3CC(C2)c2cccc(=O)n2C3)c(NC(=O)c2ccncc2)c1 (stereo not drawn) | inconclusive: 89.1 µM [inhibitor, single point] | 
19 | CCn1c(COc2ccc(OC)cc2)nnc1SCc1nc2ccccc2c(=O)[nH]1 |  | inactive: -2.22% [at 102 µM]
20 | O=C(Cc1ccc(-n2c(=O)[nH]c3ccsc3c2=O)cc1)N1CCN(c2ccc(Cl)cc2)CC1 | inconclusive: 1.78 µM [inhibitor, full curve] | 
21 | O=C(CN1C(=O)NC2(CCCC2)C1=O)N1CCN(c2ccccc2Cl)CC1 | inconclusive: 79.4 µM [inhibitor, single point] | 
22 | C/C(CC(=O)Nc1ccc(C)c(Cl)c1)=N\NC(=O)c1ccncc1 | inconclusive: 39.8 µM [inhibitor, partial curve] | 
23 | COCCCNC(=O)c1ccc(-n2c(-c3ccccc3)cc3c2CCCC3)cc1 |  | inactive: -38.7%

Row | Compound | Potency | activity, negative = inhibition
24 | Cc1ccc(-c2ccc(SCC(=O)N3CCCc4ccccc43)nn2)cc1 | inconclusive: 89.1 µM [inhibitor, single point] | 
25 | Cc1nnc(SCc2ccc(Cl)cc2)nc1/C=C/N(C)C | inconclusive: 79.4 µM [inhibitor, single point] | 
26 | COc1cc2c(cc1OC)C(C)N(CC(=O)Nc1ccc(S(=O)(=O)N3CCCC3)cc1)CC2 (stereo not drawn) | active: 39.8 µM | 
27 | Cc1ccc(NC(=O)CCCn2c(=O)c3cccn3c3ccccc32)cc1C |  | inactive: 2.32%
28 | COc1ccc(O)c(/C=N/NC(=O)c2ccc(OCc3cccc(Br)c3)cc2)c1 |  | inactive: 34.5% [at 2.33 µM]
29 | OC[C@H]1O[C@@H]2O[C@H]3[C@H](O)[C@@H](O)[C@@H](O[C@H]4[C@H](O)[C@@H](O)[C@@H](O[C@H]5[C@H](O)[C@@H](O)[C@@H](O[C@H]6[C@H](O)[C@@H](O)[C@@H](O[C@H]7[C@H](O)[C@@H](O)[C@@H](O[C@H]8[C@H](O)[C@@H](O)[C@@H](O[C@H]1[C@H](O)[C@H]2O)O[C@@H]8CO)O[C@@H]7CO)O[C@@H]6CO)O[C@@H]5CO)O[C@@H]4CO)O[C@@H]3CO |  | inactive: 32.2%
30 | Cn1c(=O)c2c(ncn2CC(=O)N/N=C/c2c[nH]c3ccccc23)n(C)c1=O | inconclusive: 56.2 µM [inhibitor, partial curve] | 
31 | CCOc1ccccc1NC1=C(Cl)C(=O)N(c2ccccc2)C1=O | active: 3.16 µM | 
32 | CCN(CC)CCn1c(SCC(=O)NCCC2=CCCCC2)nc2c(sc3ccccc32)c1=O | inconclusive: 79.4 µM [inhibitor, partial curve, poor fit] | 
33 | Cc1ccc(C)c(S(=O)(=O)N2CCN(C(=O)CCC(=O)c3cc(C)sc3C)CC2)c1 |  | inactive: -28% [at 102 µM]
34 | COc1ccc(NC(=O)NCCCN2CCc3ccccc3C2)cc1 | inconclusive: 0.891 µM [inhibitor, full curve, poor fit] | 
35 | Cc1ccc(S(=O)(=O)N2CN(CC3CCCO3)c3nc4ccccc4nc32)c(C)c1 (stereo not drawn) | active: 31.6 µM | 
36 | O=C1CCCCc2sc(Br)c([N+](=O)[O-])c2N1 |  | inactive: -33.9% [at 102 µM]
37 | CCc1ccc(NC(=O)NNC(=O)CCc2ccccc2)cc1 |  | inactive: -1.33% [at 102 µM]
38 | Cc1ccc(NC(=O)CCC(=O)c2cc(C)sc2C)nc1 | inconclusive: 15.8 µM [inhibitor, partial curve, poor fit] | 
39 | Cc1ccc(S(=O)(=O)N2[C@@H](c3ccccc3)C(C(=O)O)=CC[C@H]2c2ccc(Cl)c(Cl)c2)cc1 |  | inactive: 24.1% [at 2.33 µM]
40 | N#Cc1c(C(F)(F)F)cc(-c2cccs2)nc1SCC(=O)Nc1ccccc1F | inconclusive: 10 µM [inhibitor, partial curve] | 
41 | CCc1ccc(/C(C)=N/NC(=O)c2ccc(-n3cnnn3)cc2)cc1 | inconclusive: 10 µM [inhibitor, partial curve, poor fit] | 
42 | CC[C@@H](C)[C@H]1O[C@]2(CC[C@@H]1C)C[C@@H]1C[C@@H](C/C=C(\C)[C@@H](O[C@H]3C[C@H](OC)[C@@H](O[C@H]4C[C@H](OC)[C@@H](O)[C@H](C)O4)[C@H](C)O3)[C@@H](C)/C=C/C=C3\CO[C@@H]4[C@H](O)C(C)=C[C@@H](C(=O)O1)[C@]34O)O2 |  | inactive: 21.2% [at 12.7 µM]
43 | CCc1ccc(NC(=S)Nc2cc(C(=O)O)ccc2N2CC3CC(C2)c2cccc(=O)n2C3)cc1 (stereo not drawn) | inconclusive: 25.1 µM [inhibitor, partial curve, poor fit] | 
44 | C/C(=N\NC(=O)c1c(C)nc2ccccn12)c1ccco1 |  | inactive: 8.83% [at 102 µM]
45 | CCc1ccc(O)c(C(=O)c2cnc3cc(-c4ccc(C)cc4)nn3c2)c1 |  | inactive: 2.96%
46 | O=c1cc(O)n(-c2ccc(Cl)cc2)c(=S)[nH]1 | active: 10 µM | 

Row | Compound | Potency | activity, negative = inhibition
47 | CN(C)S(=O)(=O)N1CCc2ccc(NC(=O)C3CCCO3)cc2C1 (stereo not drawn) | inconclusive: 79.4 µM [inhibitor, single point] | 
48 | COC(=O)/C=C1\SC(=NC(=O)c2cccc(Cl)c2)NC1=O |  | inactive: 3.48% [at 0.0925 µM]
49 | O=C(CCC(=O)c1cccs1)NCc1cccnc1 |  | inactive: 0.741% [at 102 µM]
50 | O=C(Cn1c(C(F)(F)F)nc2ccccc21)c1ccc(Cl)cc1 |  | inactive: 6.06%
51 | O=C1C(=O)N(Cc2cccnc2)C(c2cccc(F)c2)/C1=C(/O)c1ccc2c(c1)OCO2 (stereo not drawn) | inconclusive: 70.8 µM [inhibitor, single point] | 
52 | COC(=O)CSc1ccc(-c2nc3ccc(C)cc3[nH]2)cn1 | inconclusive: 89.1 µM [inhibitor, single point] | 
53 | O=c1cc(-c2ccc(O)cc2)oc2c1ccc1ccccc12 |  | inactive: -57%
54 | C/C(=N\NC(=O)c1c[nH]c2ccccc12)c1ccc(C)o1 |  | inactive: -6.17% [at 102 µM]
55 | Nc1nonc1-n1nnc(C(=O)N/N=C/c2ccc(OCc3ccccc3)cc2)c1CN1CCCCC1 | inconclusive: 89.1 µM [inhibitor, single point] | 
56 | S=C1NC=NC2N=CNC12 (stereo not drawn) | active: 22.4 µM | 
57 | O=[N+]([O-])c1cc(S(=O)(=O)N2CCCCC2)ccc1NCc1cccc(Cl)c1 | inconclusive: 39.8 µM [inhibitor, single point] | 
58 | COc1ccc(-c2n[nH]c(=S)n2-c2ccccc2C)cc1 | active: 4.47 µM | 
59 | CCOc1ccc2ncc(S(=O)(=O)c3ccccc3)c(N3CCC4(CC3)OCCO4)c2c1 | inconclusive: 8.91 µM [inhibitor, full curve] | 
60 | O=C(Nc1ccccc1)c1nnsc1S(=O)c1ccc(Cl)cc1 (stereo not drawn) | inconclusive: 7.08 µM [inhibitor, full curve, poor fit] | 
61 | CCN1CCCc2cc(CN(CCN3CCOCC3)C(=S)Nc3ccc(C)cc3)ccc21 | active: 12.6 µM | 
62 | CCN(CC)/C(Sc1ccccc1)=C(\C(Cl)=C(Cl)Cl)[N+](=O)[O-] | inconclusive: 31.6 µM [inhibitor, single point] | 
63 | CCN1CC(CN(C)Cc2nc(Cc3ccccc3)no2)CC1=O (stereo not drawn) |  | inactive: 10.2% [at 102 µM]
64 | CCn1cc(S(=O)(=O)c2ccccc2)c(=O)c2cc(F)c(N3CCCC3)cc21 |  | inactive: 10.7%
65 | CSc1cccc(-c2nnc(NC(=O)c3cccc(N4C(=O)CCC4=O)c3)o2)c1 |  | inactive: 6.9% [at 102 µM]
66 | CCOc1ccc(-c2cc(C(=O)NCc3ccccc3Cl)c3ccccc3n2)cc1 |  | inactive: -4.37%
67 | CCOC(=O)CSc1ccc(-c2nc3ccccc3[nH]2)cn1 | inconclusive: 3.16 µM [inhibitor, partial curve, poor fit] | 
68 | CN(Cc1ccccc1)c1nc2c(c(=O)[nH]c(=O)n2C)n1CCSc1nc2ccccc2[nH]1 | inconclusive: 79.4 µM [inhibitor, single point] | 
